Measurements as given in the supplement of paper PMC10126150.
Sequences with one replicate were seen in a single cluster, so their values are uncertain.

Test system: ATP
Assay: switch fluorescence ratio, 500 uM ATP over buffer (Cy3 cluster intensity, sum of 5 cycles each) (fold (ratio)); higher = stronger signal-on switching upon ATP binding; sequences stand for … in TCGTCGGCAGCGTCAGATGTGTATAAGAGACAGTTTTTTTTTTTTTTTTTTTTTTTTT…TC
Details: aptamer strand: ATP DNA aptamer (quencher-CACCTGGGGGAGTATTGCGGAGGAAGG + anchor), 100 nM annealed; ATP concentration: 500 uM; one replicate
Summary of the method: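 Clusters carrying Cy3-labelled switching strands on a modified Illumina MiSeq flow-cell were annealed to 100 nM quencher-labelled ATP aptamer and imaged in selection buffer. They were imaged again after 15 min with 500 uM ATP at 22 °C, over five buffer/ATP cycles with NaOH stripping and re-annealing in between. For each cluster, the fluorescence ratio is the summed Cy3 intensity of the target cycles divided by that of the buffer cycles, averaged per switch-domain sequence. Clusters outside 100-1000 RFU were left out.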
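Note: ATP exposure 15 min at 22 °C before imaging.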

Row | Sequence | switch fluorescence ratio
1 | CCTCGTCGTA | 0.934
2 | TTTAGAGTCA | 1.01
3 | GCCATCGCAA | 2.22
4 | ATCCAGCCGA | 1.04
5 | ATCGATAAAA | 0.991
6 | AGCATAACTT | 1.06
7 | CACCAACCTC | 1.19
8 | TTTCTTCAA | 1
9 | CTCTGCCGGT | 1.05
10 | TTGATCGGT | 1.04
11 | TTAACTGATG | 0.962
12 | CATGGTAGCA | 1.02
13 | CTCTCGCCTA | 1.16
14 | TCGGATATAT | 1
15 | GTTTAAGGC | 0.892
16 | CACGTCCACC | 1.44
17 | TGCTCTGGGC | 1.04
18 | CTCCTGAGTT | 1.07
19 | TTTGGG | 1
20 | TTGTTTGGAG | 1.04
21 | AGGGCTCATC | 0.994
22 | CCATTTGGGG | 1.02
23 | TGATACTCAG | 1.1
24 | TTTCGCCCCG | 1.11
25 | ACCTTAGTTT | 1.04
26 | GCTCCCAACG | 1.63

Row | Sequence | switch fluorescence ratio
27 | AGAAGAGCAG | 0.993
28 | GGTCCATCGG | 0.965
29 | TACTTTTGGC | 1.06
30 | TCACAAGGAC | 1.06
31 | TACCCTTGTG | 1.03
32 | TCCTAAAGCT | 1.26
33 | TAAGATATAT | 1.05
34 | CTGAACTCGG | 1.05
35 | CTCCCACCCC | 1.83
36 | TTATTCTTAA | 1.01
37 | ACAGTAGGTA | 1
38 | AGGGATCCTG | 0.983
39 | TTAGTTTCA | 1.02
40 | ACTGCAACGC | 1.18
41 | TATTCTCCCA | 1.02
42 | ATAATCGCTA | 1.04
43 | GTGTCAATGG | 1.05
44 | ACGCGCGGGT | 1.03
45 | TCAACCATGC | 1.11
46 | ATCGCAGGGA | 1.05
47 | AACTCTGGCG | 1.02
48 | TAGAGTTCGA | 1.01
49 | CCCTTTGGGC | 1.03
50 | AGTATATAA | 1.03
51 | ATATGAATTA | 0.999
52 | AACAGCCGGG | 1.02

Row | Sequence | switch fluorescence ratio
53 | CGGAGGTCGG | 1
54 | GAAACCGCTC | 2.6
55 | CTCGAAGTAT | 1.04
56 | TTTCAACCTG | 1.03
57 | ATGTGCGG | 0.99
58 | CGATGATCAG | 0.986
59 | GATGTTGAGG | 0.933
60 | TATGTTCATT | 1.01
61 | GAAGAGGTGT | 1.06
62 | CTGGTTGCGT | 1.08
63 | GGCCACGTCA | 1.07
64 | AAGGGATCCT | 1.06
65 | GAGGTGCCCG | 0.966
66 | AGCTAAATC | 1.02
67 | GCCTTGAAAC | 1.01
68 | CGAATAAATG | 0.983
69 | AGACCCAGGA | 1.01
70 | TCGTGTACTT | 0.965
71 | CACCAAAATG | 1.02
72 | GCCTGATTGT | 0.998
73 | TTAATCGAGT | 1.07
74 | GGGCGGCGCG | 0.995
75 | CTGAACGAAC | 1.69
76 | TGGCACGTTT | 0.973
77 | TGCGCCAACC | 0.974
78 | ACTTAGGCAG | 1.03

Row | Sequence | switch fluorescence ratio
79 | TGCGAATGGC | 1.06
80 | AAGAGCTATT | 0.95
81 | TGACTGTAGG | 1.02
82 | GGGTCCGGTA | 0.988
83 | CACAACAAGT | 1
84 | AATGGCCGG | 1.01
85 | GACCGTCATA | 1.07
86 | GTGCGGTGGA | 1.01
87 | GATGCACGTT | 1.04
88 | ATTAGAGAT | 1.03
89 | ATATATCTTG | 1.01
90 | GCACACGGGC | 0.972
91 | GATCGGCAGG | 1.02
92 | AATGTGCTTA | 1
93 | TAAGGGAGAT | 1.01
94 | AAATGTGCAT | 0.945
95 | AAGCGTGGTA | 0.999
96 | ACGGCTTTCT | 0.976
97 | TCTAGATGTG | 1
98 | GTCTTTTTGT | 0.988
99 | GAGGTATTGT | 0.932
100 | ATACTTGAAT | 0.975
101 | GGTAGTAGGG | 0.943
102 | GTCTGGCGCA | 0.984
103 | CTGACAGCTG | 1.09
104 | CGGGACCGGG | 1.05

Row | Sequence | switch fluorescence ratio
105 | TTTGTTTACG | 1.02
106 | CGTAGTTCCA | 0.995
107 | TCCCACGAGA | 0.997
108 | GGATACAACT | 1.05
109 | ATTTCGACT | 0.969
110 | AATGTAGGTC | 1
111 | TAGGTACCCA | 1.02
112 | GTCGAGGGGT | 0.984
113 | GCCCCAGTTG | 2.52
114 | CATACGTTCA | 1.03
115 | TTTAGTAC | 1.08
116 | TCCGTATGG | 1.02
117 | TTAGGCCGTT | 1.02
118 | GGTCAGTGTA | 0.996
119 | AATCCGACG | 1.14
120 | ACTATGCGGT | 1.03
121 | TCTCATAGCT | 0.999
122 | GGGTCAGG | 1.05
123 | CCATTTCAG | 1.01
124 | AAAAGTATCT | 0.994
125 | GGCGCAGTCT | 0.939
126 | CATGTATTCT | 0.984
127 | TAATAAGCAG | 1.03
128 | GGAGCCATGG | 1.06
129 | TCCCAATTTG | 0.992
130 | CGATGGGCA | 1.03

Row | Sequence | switch fluorescence ratio
131 | GTTTTGTCAC | 1.03
132 | ATGGGTTCCT | 0.986
133 | AAATTTCACA | 1.03
134 | AATCTGGTCG | 0.956
135 | ATGCTCTTCA | 1.03
136 | AGTATTGAA | 1.01
137 | TGATTGTTAC | 1
138 | AATGGAGTCG | 0.998
139 | GTCCACCC | 1.02
140 | TGTCCAAGGC | 1.05
141 | TCTTCTCACC | 1.01
142 | CACTCCGTGG | 1.12
143 | ACTATCCTCT | 1.08
144 | GTAGTTGATA | 1.02
145 | CGAGGCTATG | 1.25
146 | TGTGTGGAGG | 1
147 | CGTAGCGTAA | 2.46
148 | CAATTGGGTA | 1.07
149 | AAAGTTATGG | 0.978
150 | GTCATTAAGT | 1.02
151 | TGAATGTAGG | 0.999
152 | ATTTACCACC | 1.26
153 | ACTCCCTCGC | 2.18
154 | GAAAATGATT | 0.986
